In patent publication US6121271A, “Naphtho[2,3-B]heteroar-4-yl derivatives” (American Home Products Corporation, priority 1999, dated 2000):

Target: T1, recombinant, human protein tyrosine phosphatase (PTP) 1B (Homo sapiens, UniProt P18031)
T1 sequence (P18031 1-435): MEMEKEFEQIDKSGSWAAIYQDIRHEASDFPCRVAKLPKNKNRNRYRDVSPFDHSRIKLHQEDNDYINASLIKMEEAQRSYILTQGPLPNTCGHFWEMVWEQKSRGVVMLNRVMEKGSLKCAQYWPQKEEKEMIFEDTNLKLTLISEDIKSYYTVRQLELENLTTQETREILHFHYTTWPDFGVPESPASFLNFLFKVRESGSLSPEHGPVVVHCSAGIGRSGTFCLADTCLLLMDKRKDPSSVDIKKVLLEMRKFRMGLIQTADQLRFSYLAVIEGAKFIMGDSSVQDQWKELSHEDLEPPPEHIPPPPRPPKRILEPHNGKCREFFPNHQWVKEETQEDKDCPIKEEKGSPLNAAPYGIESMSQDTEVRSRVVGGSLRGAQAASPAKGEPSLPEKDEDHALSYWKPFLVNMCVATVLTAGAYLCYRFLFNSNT
Conditions: for inhibition at 1 µM: read-out: % inhibition @ 1 (μM)

| SMILES | IC50 [nM] | inhibition at 1 µM [%] |
| --- | --- | --- |
| Cc1cc(-c2c3ccccc3c(Br)c3sc(C)c(C)c23)cc(C)c1OS(=O)(=O)c1ccc(C(=O)O)c(O)c1 [Example 2, 4-[4-(9-Bromo-2,3-dimethyl-naphtho[2,3-b]thiophen-4-yl)-2,6-dimethyl-phenoxysulfonyl]-2-hydroxy-benzoic acid] | 106 |  |
| CC(=O)Oc1cc(S(=O)(=O)Oc2c(C)cc(-c3c4ccccc4c(Br)c4sc(C)c(C)c34)cc2C)ccc1C(=O)O [Example 5, 2-Acetoxy-4-[4-(9-bromo-2,3-dimethyl-naphtho[2,3-b]thiophen-4-yl)-2,6-dimethyl-phenoxysulfonyl]-benzoic acid] | 81 |  |
| CC(=O)Oc1cc(S(=O)(=O)Oc2ccc(-c3c4ccccc4c(Br)c4sc(C)c(C)c34)cc2C2CCCC2)ccc1C(=O)O [Example 6, 2-Acetoxy-4-[4-(9-bromo-2,3-dimethyl-naphtho[2,3-b]thiophen-4-yl)-2-cyclopentyl-phenoxysulfonyl]-benzoic acid] | 56 |  |
| Cc1oc2cc3ccccc3c(-c3ccc(OS(=O)(=O)c4ccc(C(=O)O)c(O)c4)c(C4CCCC4)c3)c2c1C [Example 13, 4-[2-Cyclopentyl-4-(2,3-dimethyl-naphtho[2,3-b]furan-4-yl)-phenoxysulfonyl]-2-hydroxy-benzoic acid] | 125 |  |
| Cc1cc(-c2c3ccccc3c(Br)c3sc(C)c(C)c23)cc(C)c1OS(=O)(=O)c1ccc(C(=O)OC(C)(C)C)c(O)c1 [Example 16, 4-[4-(9-Bromo-2,3-dimethyl-naphtho [2,3-b]thiophen-4-yl)-2,6-dimethyl-phenoxysulfonyl]-2-hydroxy-benzoic acid tert-butyl ester] | 380 |  |
| CCc1cc(-c2c3ccccc3cc3sc(C)c(C)c23)cc(CC)c1OS(=O)(=O)c1scc(C(=O)O)c1OC [Example 18, 5-[4-(2,3-dimethyl-naphtho[2,3-b]thiophen-4-yl)-2,6-diethyl-phenoxysulfonyl]-4-methoxy-thiophene-3-carboxylic acid] | 121 |  |
| Cc1sc2cc3ccccc3c(-c3ccc(OS(=O)(=O)c4ccc(-c5ccccn5)s4)c(C4CCCC4)c3)c2c1C [Example 19, 5-Pyridin-2-yl-thiophene-2-sulfonic acid 2-cyclopentyl-4-(2,3-dimethyl-naphtho[2,3-b]thiophen-4-yl)-phenyl ester] |  | 20 |
| CCc1cc(-c2c3ccccc3cc3sc(C)c(C)c23)cc(CC)c1OS(=O)(=O)c1scc(C(=O)O)c1OC(=O)c1ccccc1 [Example 20, 4-Benzoyloxy-5-[4-(2,3-dimethyl-naphtho[2,3-b]thiophen-4-yl)-2,6-diethyl-phenoxysulfonyl]-thiophene-3-carboxylic acid] | 193 |  |
| Cc1sc2cc3ccccc3c(-c3ccc(OS(=O)(=O)c4cccc(C(=O)O)c4)c(C4CCCC4)c3)c2c1C [Example 21, 3-[2-Cyclopentyl-4-(2,3-dimethyl-naphtho[2,3-b]thiophen-4-yl)-phenoxysulfonyl]-benzoic acid] | 196 |  |
| CSc1nccc(-c2ccc(S(=O)(=O)Oc3ccc(-c4c5ccccc5cc5sc(C)c(C)c45)cc3C3CCCC3)s2)n1 [Example 22, 5-(2-Methylsulfanyl-pyrimidin-4-yl)-thiophene-2-sulfonic acid 2-cyclopentyl-4-(2,3-dimethyl-naphtho[2,3-b]thiophen-4-yl)-phenyl ester] |  | 17 |
| Cc1cc(-c2c3ccccc3cc3sc(C)c(C)c23)cc(C)c1OS(=O)(=O)c1ccc(C(=O)O)c(OC(=O)c2ccc(Cl)cc2)c1 [Example 24, 2-(4-Chloro-benzoyl)oxy-4-[4-(2,3-dimethyl-naphtho[2,3-b]thiophen-4-yl)-2,6-dimethyl-phenoxysulfonyl]-benzoic acid] | 83 |  |

Results, then the molecule that gave them:

| IC50 [nM] | inhibition at 1 µM [%] | SMILES |
| --- | --- | --- |
| 48 |  | Cc1sc2c(Br)c3ccccc3c(-c3ccc(OS(=O)(=O)c4ccc(C(=O)O)c(O)c4)c(C(C)C)c3)c2c1C [Example 1, 4-[4-(9-Bromo-2,3-dimethyl-naphtho[2,3-b]thiophen-4-yl)-2-isopropyl-phenoxysulfonyl]-2-hydroxy-benzoic acid] |
| 28 |  | Cc1sc2c(Br)c3ccccc3c(-c3ccc(OS(=O)(=O)c4ccc(C(=O)O)c(O)c4)c(C4CCCC4)c3)c2c1C [Example 3, 4-[4-(9-Bromo-2,3-dimethyl-naphtho[2,3-b]thiophen-4-yl)-2-cyclopentyl-phenoxysulfonyl]-2-hydroxy-benzoic acid] |
| 33 |  | Cc1sc2c(Br)c3ccccc3c(-c3cc(C(C)C)c(OS(=O)(=O)c4ccc(C(=O)O)c(O)c4)c(C(C)C)c3)c2c1C [Example 4, 4-[4-(9-Bromo-2,3-dimethyl-naphtho[2,3-b]thiophen-4-yl)-2,6-diisopropyl-phenoxysulfonyl]-2-hydroxy-benzoic acid] |
| 49 |  | CCCC(=O)Oc1cc(S(=O)(=O)Oc2c(C)cc(-c3c4ccccc4c(Br)c4sc(C)c(C)c34)cc2C)ccc1C(=O)O [Example 7, 2-Butyryloxy-4-[4-(9-bromo-2,3-dimethyl-naphtho[2,3-b]thiophen-4-yl)-2,6-dimethyl-phenoxysulfonyl]-benzoic acid] |
| 21 |  | Cc1cc(-c2c3ccccc3c(Br)c3sc(C)c(C)c23)cc(C)c1OS(=O)(=O)c1ccc(C(=O)O)c(OC(=O)c2ccccc2)c1 [Example 8, 2-Benzoyloxy-4-[4-(9-bromo-2,3-dimethyl-naphtho[2,3-b]thiophen-4-yl)-2,6-dimethyl-phenoxysulfonyl]-benzoic acid] |
| 42 |  | CCC(=O)Oc1cc(S(=O)(=O)Oc2c(C)cc(-c3c4ccccc4c(Br)c4sc(C)c(C)c34)cc2C)ccc1C(=O)O [Example 9, 2-Propionyloxy-4-[4-(9-bromo-2,3-dimethyl-naphtho[2,3-b]thiophen-4-yl)-2,6-dimethyl-phenoxysulfonyl]-benzoic acid] |
| 39 |  | COc1c(C(=O)O)csc1S(=O)(=O)Oc1ccc(-c2c3ccccc3c(Br)c3sc(C)c(C)c23)cc1C1CCCC1 [Example 10, 5-[4-(9-Bromo-2,3-dimethyl-naphtho[2,3-b]thiophen-4-yl)-2-cyclopentyl-phenoxysulfonyl]-4-methoxy-thiophene-3-carboxylic acid] |
| 28 |  | Cc1sc2c(Br)c3ccccc3c(-c3ccc(OS(=O)(=O)c4scc(C(=O)O)c4O)c(C4CCCC4)c3)c2c1C [Example 11, 5-[4-(9-Bromo-2,3-dimethyl-naphtho[2,3-b]thiophen-4-yl)-2-cyclopentyl-phenoxysulfonyl]-4-hydroxy-thiophene-3-carboxylic acid] |
| 80 |  | Cc1sc2cc3ccccc3c(-c3ccc(OS(=O)(=O)c4ccc(C(=O)O)c(O)c4)c(C4CCCC4)c3)c2c1C [Example 12, 4-[2-Cyclopentyl-4-(2,3-dimethyl-naphtho[2,3-b]thiophen-4-yl)-phenoxysulfonyl]-2-hydroxy-benzoic acid] |
| 83 |  | CCc1cc(-c2c3ccccc3cc3oc(C)c(C)c23)cc(Br)c1OS(=O)(=O)c1ccc(C(=O)O)c(O)c1 [Example 14, 4-[2-Bromo-4-(2,3-dimethyl-naphtho[2,3-b]furan-4-yl)-6-ethyl-phenoxysulfonyl]-2-hydroxy-benzoic acid] |
| 79 |  | CCc1cc(-c2c3ccccc3cc3oc(C)c(C)c23)cc(CC)c1OS(=O)(=O)c1ccc(C(=O)O)c(O)c1 [Example 15, 4-[4-(2,3-Dimethyl-naphtho[2,3-b]furan-4-yl)-2,6-diethyl-phenoxysulfonyl]-2-hydroxy-benzoic acid] |
| 15 |  | COc1ccc(C(=O)Oc2cc(S(=O)(=O)Oc3c(C)cc(-c4c5ccccc5c(Br)c5sc(C)c(C)c45)cc3C)ccc2C(=O)O)cc1 [Example 17, 2-(4-Methoxy-benzoyl)oxy-4-[4-(9-bromo-2,3-dimethyl-naphtho[2,3-b]thiophen-4-yl)-2,6-dimethyl-phenoxysulfonyl]-benzoic acid] |
| 33 |  | Cc1cc(-c2c3ccccc3cc3sc(C)c(C)c23)cc(C)c1OS(=O)(=O)c1ccc(C(=O)O)c(OC(=O)c2ccccc2)c1 [Example 23, 2-Benzoyloxy-4-[4-(2,3-dimethyl-naphtho[2,3-b]thiophen-4-yl)-2,6-dimethyl-phenoxysulfonyl]-benzoic acid] |
| 49 |  | Cc1cc(-c2c3ccccc3cc3sc(C)c(C)c23)cc(C)c1OS(=O)(=O)c1ccc(C(=O)O)c(OC(=O)c2cccnc2)c1 [Example 25, Nicotinic acid 2-carboxy-5-[4-(2,3-dimethyl-naphtho[2,3-b]thiophen-4-yl)-2,6-dimethyl-phenoxysulfonyl]-phenyl ester] |
| 72 |  | Cc1cc(-c2c3ccccc3c(Br)c3sc(C)c(C)c23)cc(C)c1OS(=O)(=O)c1ccc(C(=O)O)c(OC(=O)c2cccnc2)c1 [Example 26, Nicotinic acid 2-carboxy-5-[4-(9-bromo-2,3-dimethyl-naphtho[2,3-b]thiophen-4-yl)-2,6-dimethyl-phenoxysulfonyl]-phenyl ester] |
| 24 |  | Cc1cc(-c2c3ccccc3c(Br)c3sc(C)c(C)c23)cc(C)c1OS(=O)(=O)c1ccc(C(=O)O)c(OC(=O)c2ccc(C#N)cc2)c1 [Example 28, 2-(4-Cyano-benzoyl)oxy-4-[4-(9-bromo-2,3-dimethyl-naphtho[2,3-b]thiophen-4-yl)-2,6-dimethyl-phenoxysulfonyl]-benzoic acid] |
| 38 |  | COc1cccc(C(=O)Oc2cc(S(=O)(=O)Oc3c(C)cc(-c4c5ccccc5c(Br)c5sc(C)c(C)c45)cc3C)ccc2C(=O)O)c1 [Example 29, 2-(3-Methoxy-benzoyl)oxy-4-[4-(9-bromo-2,3-dimethyl-naphtho[2,3-b]thiophen-4-yl)-2,6-dimethyl-phenoxysulfonyl]-benzoic acid] |
